From the antibiotic and cytotoxicity screens of Wong et al. (2023)
The other results are listed elsewhere or left out.

Key:
HSkMC = human skeletal muscle cells; experiment: cytotoxicity call (relative viability < 0.9); details: 10 µM
S. aureus RN4220 = experiment: growth inhibition call (relative growth <= 0.2); details: 50 µM

## CN(C)CCCNC(=O)C[C@@H]1CC[C@@H]2[C@H](COc3ccc(NC(=O)c4ccccc4F)cc3C(=O)N2C)O1
HSkMC
  cytotoxicity call: inactive
S. aureus RN4220
  growth inhibition call: inactive

## COCC(=O)N1C[C@@H](C)[C@@H](OC)CN(C)C(=O)c2ccc(NC(=O)c3ccc(F)cc3)cc2OC[C@H]1C
HSkMC
  cytotoxicity call: inactive
S. aureus RN4220
  growth inhibition call: inactive

## C[C@@H]1CN([C@@H](C)CO)C(=O)c2cc(NC(=O)NC3CCCCC3)ccc2O[C@@H](C)CCCCO[C@H]1CN(C)S(=O)(=O)c1cccs1
HSkMC
  cytotoxicity call: inactive
S. aureus RN4220
  growth inhibition call: inactive

## CC(=O)NCCCC[C@@H]1NC(=O)[C@@H]2C[C@H](C(=O)NCCCCN(C)C)[C@H](c3cccc(OCCO)c3)N2C1=O
HSkMC
  cytotoxicity call: inactive
S. aureus RN4220
  growth inhibition call: inactive

## C[C@H](CO)N1C[C@H](C)[C@H](CN(C)Cc2ccc(C(=O)O)cc2)Oc2ccc(NS(C)(=O)=O)cc2C1=O
HSkMC
  cytotoxicity call: inactive
S. aureus RN4220
  growth inhibition call: inactive

## C[C@@H]1CN([C@@H](C)CO)C(=O)c2cccc(NS(=O)(=O)c3ccc(Cl)cc3)c2O[C@H]1CN(C)Cc1ccc(Oc2ccccc2)cc1
HSkMC
  cytotoxicity call: inactive
S. aureus RN4220
  growth inhibition call: inactive

## COCC(=O)N1C[C@H](C)[C@H](OC)CN(C)C(=O)c2cc(NC(=O)c3ccc(F)cc3)ccc2OC[C@@H]1C
HSkMC
  cytotoxicity call: inactive
S. aureus RN4220
  growth inhibition call: inactive

## COc1cccc(CN(C)C[C@@H]2OCc3ccccc3-c3c(n(C)c4ccccc34)C(=O)N([C@@H](C)CO)C[C@H]2C)c1
HSkMC
  cytotoxicity call: inactive
S. aureus RN4220
  growth inhibition call: inactive

## COc1ccccc1CN1C(=O)c2ccccc2[C@](Cc2ccccc2I)(C(=O)NCCN2CCOCC2)[C@@H]1c1ccc(CO)cc1
HSkMC
  cytotoxicity call: inactive
S. aureus RN4220
  growth inhibition call: inactive

## C[C@@H]1CN([C@@H](C)CO)C(=O)c2cc(NC(=O)Nc3ccc(C(F)(F)F)cc3)ccc2O[C@@H]1CN(C)Cc1ccncc1
HSkMC
  cytotoxicity call: inactive
S. aureus RN4220
  growth inhibition call: inactive

## C[C@@H]1CCCCO[C@H](CN(C)Cc2ccc(Cl)c(Cl)c2)[C@@H](C)CN([C@@H](C)CO)C(=O)c2cc(N(C)C)ccc2O1
HSkMC
  cytotoxicity call: inactive
S. aureus RN4220
  growth inhibition call: inactive

## C[C@H](CO)N1C[C@H](C)[C@@H](CN(C)Cc2ccc(-c3ccccc3)cc2)OCc2ccccc2-c2c(n(C)c3ccccc23)C1=O
HSkMC
  cytotoxicity call: inactive
S. aureus RN4220
  growth inhibition call: inactive

## Cc1cc(C(=O)Nc2ccc3c(c2)C(=O)N(C)[C@@H]2CC[C@@H](CC(=O)NCC(F)(F)F)O[C@H]2CO3)no1
HSkMC
  cytotoxicity call: inactive
S. aureus RN4220
  growth inhibition call: inactive

## CCS(=O)(=O)N1C[C@]2(CCN(CC2)C(=O)c2cccnc2)c2c(n(c3cc(ccc23)OC)C)[C@@H]1CO
HSkMC
  cytotoxicity call: inactive
S. aureus RN4220
  growth inhibition call: inactive

## C[C@H](CO)N1C[C@H](C)[C@@H](CN(C)Cc2cccc(C(=O)O)c2)Oc2ncc(C#CC(C)(C)O)cc2C1=O
HSkMC
  cytotoxicity call: inactive
S. aureus RN4220
  growth inhibition call: inactive

## COc1ccc(S(=O)(=O)N(C)C[C@@H]2OCCCC[C@H](C)Oc3ccc(NC(=O)Nc4c(C)noc4C)cc3C(=O)N([C@@H](C)CO)C[C@H]2C)cc1
HSkMC
  cytotoxicity call: inactive
S. aureus RN4220
  growth inhibition call: inactive

## C[C@@H]1CCCCO[C@H](CN(C)S(=O)(=O)c2ccccc2)[C@H](C)CN([C@@H](C)CO)C(=O)c2cc(NC(=O)Nc3ccccc3)ccc2O1
HSkMC
  cytotoxicity call: inactive
S. aureus RN4220
  growth inhibition call: inactive

## C[C@@H]1CCCCO[C@@H](CN(C)C(=O)Nc2cccc3ccccc23)[C@@H](C)CN([C@H](C)CO)C(=O)c2cc(NS(=O)(=O)c3cn(C)cn3)ccc2O1
HSkMC
  cytotoxicity call: inactive
S. aureus RN4220
  growth inhibition call: inactive

## COc1ccc([Si](C)(C)[C@@H]2[C@@H](CC(=O)N(CCO)Cc3ccccc3)O[C@]3(C(=O)N(C)c4c(Br)cc(C)cc43)[C@H]2C)cc1
HSkMC
  cytotoxicity call: inactive
S. aureus RN4220
  growth inhibition call: inactive

## C[C@@H]1CCCCO[C@@H](CN(C)Cc2ccncc2)[C@H](C)CN([C@@H](C)CO)C(=O)c2cc(NC(=O)C3CCCCC3)ccc2O1
HSkMC
  cytotoxicity call: inactive
S. aureus RN4220
  growth inhibition call: inactive

## CCCN(C)C[C@H]1OCCCC[C@@H](C)Oc2ccc(NC(=O)c3ccccc3)cc2C(=O)N([C@H](C)CO)C[C@H]1C
HSkMC
  cytotoxicity call: inactive
S. aureus RN4220
  growth inhibition call: inactive

## CN(C)CC(=O)N1CC2(C1)[C@@H](c1ccccc1)[C@@H](CO)N2S(C)(=O)=O
HSkMC
  cytotoxicity call: inactive
S. aureus RN4220
  growth inhibition call: inactive

## O=c1cc[nH]c(C(F)(F)F)n1
HSkMC
  cytotoxicity call: inactive
S. aureus RN4220
  growth inhibition call: inactive

## NC1CCC(N[C@@H]2C[C@H]2c2ccccc2)CC1 (some centres undefined)
HSkMC
  cytotoxicity call: inactive
S. aureus RN4220
  growth inhibition call: inactive

## Cc1ccc(S(=O)(=O)Nc2ccc3c(c2)C(=O)N(C)[C@H]2CC[C@@H](CC(=O)NCCc4ccncc4)O[C@@H]2CO3)cc1
HSkMC
  cytotoxicity call: inactive
S. aureus RN4220
  growth inhibition call: inactive

## CCN(CC)CCNc1ccc(COc2ccccc2/C=C(C)/C=C/C(=O)NO)c2sc3ccccc3c(=O)c12
HSkMC
  cytotoxicity call: inactive
S. aureus RN4220
  growth inhibition call: inactive

## O=C([C@H]1CCCCN1)N1CCCC1
HSkMC
  cytotoxicity call: inactive
S. aureus RN4220
  growth inhibition call: inactive

## Cc1ccc(=O)n(-c2ccccc2)c1
HSkMC
  cytotoxicity call: inactive
S. aureus RN4220
  growth inhibition call: inactive

## C[C@@H]1CCCCO[C@H](CN(C)C(=O)Nc2cccc3ccccc23)[C@@H](C)CN([C@H](C)CO)C(=O)c2cc(NC(=O)Nc3cccc4ccccc34)ccc2O1
HSkMC
  cytotoxicity call: inactive
S. aureus RN4220
  growth inhibition call: inactive

## COc1ccc(NC(=O)Nc2ccc3c(c2)C(=O)N([C@@H](C)CO)C[C@@H](C)[C@@H](CN(C)CC2CCCCC2)OCCCC[C@H](C)O3)cc1
HSkMC
  cytotoxicity call: inactive
S. aureus RN4220
  growth inhibition call: inactive

## COCC#Cc1cnc2c(c1)C(=O)N([C@@H](C)CO)C[C@H](C)[C@H](CN(C)C(C)=O)O2
HSkMC
  cytotoxicity call: inactive
S. aureus RN4220
  growth inhibition call: inactive

## NC(=O)CC[C@@H](N)C(=O)O
HSkMC
  cytotoxicity call: inactive
S. aureus RN4220
  growth inhibition call: inactive

## C[C@@H]1CCCCO[C@@H](CN(C)C)[C@H](C)CN([C@@H](C)CO)C(=O)c2cc(NC(=O)Nc3ccc(C(F)(F)F)cc3)ccc2O1
HSkMC
  cytotoxicity call: inactive
S. aureus RN4220
  growth inhibition call: inactive

## C[C@@H]1CN([C@@H](C)CO)C(=O)c2ccccc2-c2ccccc2CO[C@H]1CN(C)C(=O)c1cc(Cl)cc(Cl)c1
HSkMC
  cytotoxicity call: inactive
S. aureus RN4220
  growth inhibition call: inactive

## CC(O)C(=O)Nc1c(I)c(C(=O)NC(CO)CO)c(I)c(C(=O)NC(CO)CO)c1I (centres undefined)
HSkMC
  cytotoxicity call: inactive
S. aureus RN4220
  growth inhibition call: inactive

## Nc1ccc(-c2ccco2)cc1
HSkMC
  cytotoxicity call: inactive
S. aureus RN4220
  growth inhibition call: inactive

## Nc1nnc(C(=O)N2CCCCC2)[nH]1
HSkMC
  cytotoxicity call: inactive
S. aureus RN4220
  growth inhibition call: inactive

## COc1ccc2cc1/C=C\NC(=O)[C@H](Cc1ccccc1)NC(=O)[C@@H]1[C@H](CCN1C(=O)[C@@H](NC(=O)[C@@H](C)N(C)C)C(C)C)O2
HSkMC
  cytotoxicity call: inactive
S. aureus RN4220
  growth inhibition call: inactive

## O=C(NCC(=O)N1CCOCC1)c1ccccc1
HSkMC
  cytotoxicity call: inactive
S. aureus RN4220
  growth inhibition call: inactive

## C[C@@H]1CN([C@H](C)CO)C(=O)c2cc(NC(=O)NC3CCCCC3)ccc2O[C@@H](C)CCCCO[C@@H]1CN(C)Cc1ccc(Cl)c(Cl)c1
HSkMC
  cytotoxicity call: inactive
S. aureus RN4220
  growth inhibition call: inactive

## NCC[C@H]1CC[C@@H](NC(=O)C2CCCC2)[C@@H](CO)O1
HSkMC
  cytotoxicity call: inactive
S. aureus RN4220
  growth inhibition call: inactive

## COC(=O)C1=C2CC[C@H](CO)NC(=O)N[C@@H](Cc3ccccc3)C(=O)NCc3cn(nn3)C[C@H](Cc3ccccc3)NC(=O)c3oc(c(C(=O)OC)c3C(=O)OC)CC[C@H](CO)NC(=O)N[C@@H](Cc3ccccc3)C(=O)NCc3cn(nn3)C[C@H](Cc3ccccc3)NC(=O)C(=C1C(=O)OC)O2
HSkMC
  cytotoxicity call: inactive
S. aureus RN4220
  growth inhibition call: inactive

## Oc1ccc(C=Cc2cc(O)cc(O)c2)cc1
HSkMC
  cytotoxicity call: inactive
S. aureus RN4220
  growth inhibition call: inactive

## Nc1ncnc2c1ncn2[C@@H]1O[C@H](COP(=O)(O)O)[C@@H](O)[C@H]1O
HSkMC
  cytotoxicity call: inactive
S. aureus RN4220
  growth inhibition call: inactive

## CC1(C)C=Cc2c(c3c(c4c(=O)c(-c5ccc(O)cc5)coc24)OC(C)(C)CC3)O1
HSkMC
  cytotoxicity call: inactive
S. aureus RN4220
  growth inhibition call: inactive

## C[C@H](CO)N1C[C@H](C)[C@H](CN(C)Cc2ccc3c(c2)OCO3)OCCCC[C@H](C)Oc2ccc(NS(=O)(=O)c3ccccc3)cc2C1=O
HSkMC
  cytotoxicity call: inactive
S. aureus RN4220
  growth inhibition call: inactive

## Nn1c(-c2ccncc2)n[nH]c1=S
HSkMC
  cytotoxicity call: inactive
S. aureus RN4220
  growth inhibition call: inactive

## C[C@H](CO)N1C[C@H](C)[C@H](CN(C)S(=O)(=O)c2ccc(F)cc2)Oc2c(NS(=O)(=O)c3ccc(F)cc3)cccc2C1=O
HSkMC
  cytotoxicity call: inactive
S. aureus RN4220
  growth inhibition call: inactive

## C[C@H](CO)N1C[C@H](C)[C@H](CN(C)Cc2ccc(Cl)c(Cl)c2)Oc2ccc(NS(=O)(=O)c3ccc(F)cc3)cc2C1=O
HSkMC
  cytotoxicity call: inactive
S. aureus RN4220
  growth inhibition call: inactive

## C[C@H]1CCCCO[C@H](CN(C)C(=O)Nc2ccc(C(F)(F)F)cc2)[C@@H](C)CN([C@@H](C)CO)C(=O)c2cc(NS(=O)(=O)c3ccc(Cl)cc3)ccc2O1
HSkMC
  cytotoxicity call: inactive
S. aureus RN4220
  growth inhibition call: inactive

## O=C(C[C@@H]1CC[C@H]2[C@@H](COC[C@@H](O)CN2S(=O)(=O)c2ccccc2)O1)N1CCc2ccccc2C1
HSkMC
  cytotoxicity call: inactive
S. aureus RN4220
  growth inhibition call: inactive

## C[C@H]1CCCCO[C@@H](CN(C)C(=O)C2CCCCC2)[C@@H](C)CN([C@@H](C)CO)C(=O)c2cc(NC(=O)Nc3ccccc3)ccc2O1
HSkMC
  cytotoxicity call: inactive
S. aureus RN4220
  growth inhibition call: inactive

## O=c1nc(NCCN2CCOCC2)cn[nH]1
HSkMC
  cytotoxicity call: inactive
S. aureus RN4220
  growth inhibition call: inactive

## C[C@@H]1CN([C@H](C)CO)C(=O)c2cc(C#CC(C)(C)O)cnc2O[C@H]1CN(C)Cc1cccc(C(=O)O)c1
HSkMC
  cytotoxicity call: inactive
S. aureus RN4220
  growth inhibition call: inactive

## C[C@H](CO)N1C[C@H](C)[C@H](CN(C)CC2CC2)OCCCC[C@H](C)Oc2ccc(NC(=O)Nc3ccc(F)cc3)cc2C1=O
HSkMC
  cytotoxicity call: inactive
S. aureus RN4220
  growth inhibition call: inactive

## CO[C@H]1CN(C)C(=O)c2cc(NC(=O)NC3CCCCC3)ccc2OC[C@@H](C)N(CCc2ccccc2)C[C@H]1C
HSkMC
  cytotoxicity call: inactive
S. aureus RN4220
  growth inhibition call: inactive

## NC(=O)c1ccc[n+](CC(=O)c2ccccc2)c1
HSkMC
  cytotoxicity call: inactive
S. aureus RN4220
  growth inhibition call: inactive

## C[C@@H]1CN([C@H](C)CO)C(=O)Cc2cc(NC(=O)Nc3ccccc3)ccc2O[C@@H]1CN(C)S(=O)(=O)c1cn(C)cn1
HSkMC
  cytotoxicity call: inactive
S. aureus RN4220
  growth inhibition call: inactive

## Cc1nnc(N2CCC[C@]3(CN(C(=O)CO)CCO3)C2)o1
HSkMC
  cytotoxicity call: inactive
S. aureus RN4220
  growth inhibition call: inactive

## O=C(C[C@H]1C[C@H]2c3cc(NS(=O)(=O)c4ccc(F)cc4)ccc3O[C@H]2[C@@H](CO)O1)NCc1ccc(Oc2ccccc2)cc1
HSkMC
  cytotoxicity call: active
S. aureus RN4220
  growth inhibition call: inactive

## C[C@H](CO)N1C[C@H](C)[C@@H](CN(C)CC2CCCCC2)Oc2ccc(NC(=O)Nc3ccc(F)cc3)cc2CC1=O
HSkMC
  cytotoxicity call: inactive
S. aureus RN4220
  growth inhibition call: inactive

## C[C@@H]1CN([C@@H](C)CO)C(=O)Cc2cc(NC(=O)C3CC3)ccc2O[C@@H]1CN(C)S(=O)(=O)c1cccs1
HSkMC
  cytotoxicity call: inactive
S. aureus RN4220
  growth inhibition call: inactive
